The campaign covered roughly 420,000 compounds. About 64,000 (15%) were called active. Inconclusive means that the source gave no clear call. Such entries were picked first, then a sample of the others. Calls come from the whole dose curve; as a rule, active = well fitted inhibition curve with a large enough effect; inconclusive = small, poorly fitted or top-dose-only effect; inactive = flat fitted curve, though single readings scatter. No potency is given beside an inconclusive call; the fits are too rough.
Experiment: qHTS for Inhibitors of human tyrosyl-DNA phosphodiesterase 1 (TDP1): qHTS in cells in absence of CPT; note: nearly all actives have a fitted effect of over 55% in size
Conditions: DT40 Tdp1-/- hTDP1 cells, no CPT, ATP luminescence, 48 h; activity change, negative = growth inhibition: at 46.2 µM (top of the series) unless noted
Summary of the method: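 Chicken DT40 Tdp1-/- cells stably complemented with human TDP1 were seeded at 400 cells/well with DMSO in place of 20 nM camptothecin. After compound pinning, cells grew at least 48 hr at 37 °C; viability read by CellTiter-Glo luminescence.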
% is set by controls: 0 for no effect and ±100 for the full control effect; potency is the fitted concentration of half-maximal effect; tags give direction and shape of the fitted curve.

| SMILES | activity change, negative = growth inhibition | Potency |
| --- | --- | --- |
| CC(=O)Nc1ccc(NC(=O)C(C)OC(=O)CNC(=O)c2ccc(-c3ccccc3)cc2)cc1 (configuration not stated) | inactive: 8.01% | – |
| Cc1noc(C(=O)Nc2cc(Cl)ccc2O)c1Cl | – | inconclusive [inhibitor, single point] |
| O=C(Nc1ccc(F)cc1)Nc1csc2ccccc12 | – | active: 23.1 µM |
| COc1ccc(CC(=O)OCC(=O)Nc2ccc(Br)cc2)cc1 | inactive: -2.2% | – |
| CCOC(=O)C1C(C(=O)OCC)C1(c1ccccc1)c1ccccc1 (configuration not stated) | – | inconclusive [inhibitor, single point] |
| CCCn1ccc2c(OCC(=O)Nc3ccc(OC)c(OC)c3)cccc2c1=O | – | active: 7.31 µM |
| O=C(CC(c1cccs1)N1Cc2ccccc2C1=O)Nc1cccc(F)c1 (configuration not stated) | – | inconclusive [inhibitor, partial curve, poor fit] |
| O=C(NCCc1ccc(F)cc1)C(=O)NCC(c1cccs1)S(=O)(=O)c1ccccc1 (configuration not stated) | – | inconclusive [inhibitor, single point] |
| CC1(C)CC(=O)C=C(c2ccc3ncccc3c2)C1 | – | inconclusive [inhibitor, single point] |
| O=C(NOC[C@H](O)CO)c1ccc(F)c(F)c1Nc1ccc(I)cc1F | inactive: -27% | – |
| Cc1ccc(OCC(=O)Nc2nc(-c3ccc(Br)cc3)ns2)cc1 | – | inconclusive [inhibitor, single point] |
| O=C(Nc1ccc([N+](=O)[O-])cc1)c1ccccc1 | inactive: -14.7% | – |
| CCOC(=O)N1CCN(C(=O)c2cc(COc3ccc(F)cc3F)on2)CC1 | – | inconclusive [inhibitor, single point] |
| CCC[C@H]1CN(c2ccc(OC)cc2)C(=O)[C@@H]1CC(=O)Nc1ccccc1 | – | inconclusive [inhibitor, single point] |
| CCN(C(=O)CCc1nc(-c2ccccc2F)no1)c1cc(OC)ccc1OC | – | inconclusive [inhibitor, single point] |
| COc1ccccc1N1CCN(C2C(=O)Nc3ccccc3-n3nnnc32)CC1 (configuration not stated) | – | inconclusive [inhibitor, single point] |
| CCN(CC(=O)Nc1ccccc1C(F)(F)F)C(=O)c1cccc(S(=O)(=O)N2CCN(C)CC2)c1 | – | inconclusive [inhibitor, partial curve] |
| CCN(c1ccc(OC)cc1)S(=O)(=O)c1csc(C(=O)N2CCCC2)c1 | inactive: -13.8% | – |
| COC(=O)C(C(=O)OC)[C@@H]1C=C[C@H](C[N+](=O)[O-])N(C(C)=O)C1 | inactive: -16.5% | – |
| COc1ccc(S(=O)(=O)N2CCCOC2CNC(=O)C(=O)NCc2ccco2)cc1C (configuration not stated) | – | inconclusive [inhibitor, single point] |
| COC(=O)c1nc2ccc(N3CCOCC3)cc2c(C)c1C(=O)OC | – | inconclusive [inhibitor, single point] |
| Cc1ccc(-c2c[n+](=O)c3c(n2[O-])CCC3)cc1 | inactive: 2.44% | – |
| O=C(O)CC1(C(=O)O)CCCC1 | – | inconclusive [inhibitor, full curve] |
| COc1cc(N2Cc3ccccc3C2)ccc1C=O | – | inconclusive [inhibitor, single point] |

| SMILES | activity change, negative = growth inhibition | Potency |
| --- | --- | --- |
| CC(C)Cc1cc(C(=O)N2CCCC(CO)(Cc3ccc(F)cc3F)C2)n[nH]1 (configuration not stated) | – | inconclusive [inhibitor, partial curve] |
| CCn1c(=O)cc(OCC(=O)NCCc2cccc(C)c2)c2ccccc21 | – | inconclusive [inhibitor, single point] |
| Cc1[nH]nc(-c2cccnc2)c1N=NN(C)C | – | active: 1.46 µM |
| O=C1NC(Cc2ccccc2)c2nc3ccccc3c(=O)n2-c2ncccc21 (configuration not stated) | inactive: -54.3% | – |
| Cc1ccc(C(C)C)cc1OCC(=O)Nc1ccccc1N1CCCC1 | – | inconclusive [inhibitor, single point] |
| CN(c1ccccc1)S(=O)(=O)c1ccc(NC(=O)c2ccc(F)cc2)cc1 | – | inconclusive [inhibitor, partial curve] |
| Cc1ccc(-n2c(C)c(C)c3c(NCCO)ncnc32)cc1 | – | inconclusive [inhibitor, partial curve] |
| O=C(CSc1nc(=O)[nH]c2c1CCC2)NCc1ccc(F)cc1 | inactive: -9.64% | – |
| Cc1cc(C)c(/C=C2\C(=O)Nc3ccccc32)[nH]1 | – | inactive |
| CC(C)(NC(=O)c1ccccc1)c1nc2ccccc2s1 | inactive: -8.82% | – |
| Cc1ccccc1S(=O)(=O)Cc1ccc(C(=O)N2CCN(c3ccccc3F)CC2)o1 | – | inconclusive [inhibitor, single point] |
| COc1ccc(NCc2nnc(SCC(=O)Nc3ccccc3OC)o2)cc1 | inactive: -18.8% | – |
| O=C(NCc1ccc2[nH]c3c(c2c1)CCCC3)c1ccc(S(=O)(=O)N2CCOCC2)cc1 | – | inconclusive [inhibitor, single point] |
| CC1CCN(C(=O)CC2C(=O)Nc3c2c(=O)n(C)c(=O)n3Cc2ccccc2)CC1 (configuration not stated) | inactive: -9.19% | – |
| COc1ccc(-n2nc(C(=O)NCC(=O)Nc3ccccn3)c3ccccc3c2=O)cc1Cl | – | inconclusive [inhibitor, partial curve] |
| CCCC(=O)N(CCN(C(=O)CCC)c1ccccc1)c1ccccc1 | – | active: 20.6 µM |
| CC(=O)[C@H]1CCC2C3CC=C4C[C@@H](O)CC[C@]4(C)C3CC[C@@]21C (some centres not stated) | – | inconclusive [inhibitor, single point] |
| CCN1C(=O)[C@H]2[C@@H](c3ccc(C)cc3)N3C(=O)N(c4cccc(F)c4)C(=O)[C@@]3(CC)[C@H]2C1=O | inactive: -6.34% | – |
| CCCCn1c(SCC(=O)NCC2CCCO2)nc2ccc(N3CCOCC3)cc2c1=O (configuration not stated) | inactive: -12.7% | – |
| Cc1ccc(C(=O)N[C@H](C(=O)OCc2cc(=O)n3c(n2)sc2ccccc23)C(C)C)cc1 | – | inconclusive [inhibitor, single point] |
| Cc1cc(C)n(C2CC(=O)N(c3cccc(Cl)c3)C2=O)n1 (configuration not stated) | – | inconclusive [inhibitor, single point] |
| Cc1cc2oc(=O)cc(CN3CCCCC3)c2cc1Cl | – | inconclusive [inhibitor, single point] |
| O=C(Nc1ccc(-c2cn3ccsc3n2)cc1)C1CC1 | – | inconclusive [inhibitor, partial curve] |
| O=C(CCCn1c(=O)c2ccccc2n(Cc2cccc(F)c2)c1=O)NCc1ccccc1Cl | – | inconclusive [inhibitor, full curve, poor fit] |

| SMILES | activity change, negative = growth inhibition | Potency |
| --- | --- | --- |
| CN(C)/C=N/c1ncc(C(=O)c2ccc3ccccc3c2)s1 | – | inconclusive [inhibitor, single point] |
| CCc1ccc(N(CC)C(=O)c2cn(C)c(=O)c3ccccc23)cc1 | inactive: -3.74% | – |
| O=C(CCC(=O)N1CCCC1)Nc1ccc(Cl)c(Cl)c1 | inactive: 16% | – |
| Cc1cc(C)c(NC(=O)CNC(=O)c2cc(C3CC3)nc3c2cnn3C(C)C)c(C)c1 | – | active: 18.4 µM |
| Cc1ccc(-c2noc(CCC(=O)NCC3CCN(Cc4cccc(C)c4)CC3)n2)cc1 | – | inconclusive [inhibitor, single point] |
| COc1ccc(Cl)cc1NC(=O)CN(C)CC(=O)Nc1ccc2c(c1)OCO2 | – | inconclusive [inhibitor, single point] |
| COc1ccc(CNC(=O)C(c2ccncc2)N(C(=O)Cc2cccs2)c2ccccc2)cc1 (configuration not stated) | – | inconclusive [inhibitor, single point] |
| Nc1nc(C23CC4CC(CC(C4)C2)C3)cs1 | inactive: -15.4% | – |
| COc1ccc(N(CC(O)Cn2c(C)nc3ccccc32)S(=O)(=O)c2ccc(C)cc2)cc1 (configuration not stated) | – | inconclusive [inhibitor, partial curve] |
| CCOc1cc(CNc2ccc3c(c2)OCCO3)cc(Br)c1OC | – | active: 1.16 µM |
| O=C(CCC1CCCCC1)NCCN1C2=NC[C@H](Cc3ccc(O)cc3)N2C[C@H]1Cc1ccc(O)cc1 | – | inconclusive [inhibitor, single point] |
| O=C1CC(=O)N(Cc2ccco2)C(=S)N1 | inactive: -2.71% | – |
| CCC(C)n1c(SCC(=O)NC(=O)c2cccn2C)nc2ccccc2c1=O (configuration not stated) | – | inconclusive [inhibitor, single point] |
| CCc1nc(SCC(=O)NCc2ccco2)c2c(=O)n(C)c(=O)n(C)c2n1 | – | inconclusive [inhibitor, partial curve] |
| Cc1cc(=O)oc2cc(OS(C)(=O)=O)ccc12 | inactive: -18.6% | – |
| Cc1ccc(-c2nnc(SCC(=O)NC3CCS(=O)(=O)C3)nc2-c2ccc(C)cc2)cc1 (configuration not stated) | – | inconclusive [inhibitor, partial curve] |
| COc1ccccc1-c1nnc2sc(COc3ccccc3)nn12 | inactive: -26.5% | – |
| O=C(NCCCc1nc2ccccc2n1Cc1ccccc1F)c1ccco1 | – | inconclusive [inhibitor, single point] |
| Cc1ccc(C(O)(COC(=O)C(C)C)COC(=O)C(C)C)c(O)c1 | – | active: 3.66 µM |
| Cc1ccc(NCC(=O)c2ccc([N+](=O)[O-])cc2)cc1 | – | inconclusive [inhibitor, partial curve] |
| CN(C)c1ccc(CCC2C=Cc3ccccc32)cc1 (configuration not stated) | – | inconclusive [inhibitor, single point] |
| COC(=O)C(CCSC)NC(=O)c1cc2c(n(-c3ccccc3)c1=O)CC(C)(C)CC2=O (configuration not stated) | – | inactive |
| CN1C(=O)c2ccccc2Sc2ccc(NC(=O)c3ccc(C#N)cc3)cc21 | – | inconclusive [inhibitor, single point] |
| CCn1cc([N+](=O)[O-])c(C(=O)N2N=C(c3ccc(O)c(OC)c3)CC2c2ccccc2O)n1 (configuration not stated) | – | inconclusive [inhibitor, partial curve, poor fit] |

From PubChem BioAssay AID686978 (National Center for Advancing Translational Sciences (NCATS), 2013)
